From PubChem BioAssay AID1508623 (National Center for Advancing Translational Sciences (NCATS), 2021)
Hit rate of the full screen: of about 48,000 compounds, about 450 (0.94%) were called active. About 19% were inconclusive and are not listed. Calls follow the shape of the dose curve; as a rule, active = well fitted inhibition curve with a large enough effect; inconclusive = small, poorly fitted or top-dose-only effect; inactive = no such curve, though single readings can be large or run the other way. The list shows a part of the results.

Test: Primary qHTS for Identification of Small Molecule Inhibitors of Huntingtin Promoter Activity; also: nearly all actives have a fitted effect of over 50% in size
Details: HEK293 HTT promoter firefly luciferase reporter (activity 0% = vehicle and -100% = no light), 24 h; series mostly up to 57.5 µM; activity change, negative = inhibition: at the top concentration
Summary of the method: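 Quantitative HTS used concentration series of up to 57.5 uM final on HEK293 luciferase reporter cells, 24 h at 37 degrees C. Readout was Dual-Glo firefly luminescence.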

Activity change, negative = inhibition, inactive:
CCCOc1ccc(/C=C/C(=O)Nc2sc(C)c(C)c2C(=O)OCC)cc1OC -9.78%
Cc1nc(S(=O)(=O)N2CCN(c3ccc(Cl)cc3)CC2)cn1C -7.56%
Cc1nnc(SCc2cc(=O)c3ccccc3[nH]2)s1 -13%
CCOc1ccc(CCNC(=O)c2ccc(-c3nc(CSc4ccc(C)cc4)c(C)o3)cc2)cc1 -23.9%
CCN(Cc1nc(-c2cccc(C)c2)no1)S(=O)(=O)c1ccc(C)cc1 -29.6%
Cc1cccc(C)c1NC(=O)CN1C(=O)CCSc2ccc(S(=O)(=O)N3CCCC3)cc21 -21.8%
Cc1ccc(C)c(N2C(=O)N(Cc3c(F)cccc3Cl)c3ccccc3S2(=O)=O)c1 -13.6%
COc1ccc(N(CC(=O)Nc2ccc(C)c(C)c2)S(=O)(=O)c2ccc(C)cc2)cc1OC -18%
COC(=O)c1cc(NC(=O)Nc2ccc3snnc3c2)cc(C(=O)OC)c1 -11.8%
Cc1ccccc1-c1noc(-c2ccc(N3CCN(c4ccccc4)CC3)c([N+](=O)[O-])c2)n1 -3.05%
CC1CCN(C(=O)c2ccc3c(c2)N(Cc2ccccc2F)C(=O)c2ccccc2S3(=O)=O)CC1 -28.3%
Cc1ccc(NC(=O)C(=O)NCC(c2cccnc2)N2CCOCC2)cc1 (stereo not drawn) -5.3%
Cc1c(Cl)cccc1-n1ncc(C(=O)N2CCN(C)CC2)c1C1CCN(C(=O)OC(C)(C)C)CC1 -5.66%
COc1ccc(S(=O)(=O)n2nc(C)c(S(=O)(=O)N3CCCCC3)c2C)cc1 -12.9%
COc1ccccc1N1CCN(C(=O)c2cc3c(=O)n(C)c4ccccc4c3s2)CC1 -5.54%
COc1ccc(CNC(=O)Cn2nc(C)n3cccc3c2=O)cc1 11%
COc1ccc(-c2nc(SCC(=O)NC3CCCC3)c(-c3ccc(OC)cc3)[nH]2)cc1 -31.5%
CCc1cccc2c(CCO)c[nH]c12 9.02%
COc1ccccc1-c1noc(-c2ccc(N3CCOCC3)c([N+](=O)[O-])c2)n1 37.5%
CC(C)Cn1c(=O)c2ccccc2n2c(CCC(=O)N3CCN(c4cccc(Cl)c4)CC3)nnc12 4.37%
CC(=O)c1ccc(N2CCN(c3ncnc4c3c(-c3ccccc3)cn4-c3ccc(C)c(Cl)c3)CC2)cc1 -19.1%
COCCCN(Cc1ccco1)C(=O)c1cc2c(s1)-c1ccccc1OC2 -15.6%
CCOC(=O)C1CCN(c2nc3c(S(=O)(=O)c4ccc(Br)cc4)nnn3c3ccsc23)CC1 -0.883%
FC(F)(F)c1cccc(-n2cc(-c3ccccc3)c3c(N4CCCCC4)ncnc32)c1 -9.44%
COc1ccc(CCNC(=O)Cn2cc(C(=O)c3ccc(Cl)cc3)c(=O)c3ccc(C)nc32)cc1OC 7.48%
COc1ccccc1CNC(=O)CN1C(=O)CCc2cc(S(=O)(=O)N3CCCCC3)ccc21 5.04%
CCCN(CCC)CCNC(=O)Cn1cnc2sc(C)c(S(=O)(=O)N3CCC(C)CC3)c2c1=O -16.4%
COCCN1C(=O)c2oc3cc(C)cc(C)c3c(=O)c2C1c1cccc(O)c1 (stereo not drawn) -21.3%
COc1ccc(S(=O)(=O)N(CCc2ccccc2)CC(=O)NCc2ccccc2)cc1 -32.6%
CCOC(=O)c1cccc(NC(=O)Cn2nc3c(cc2=O)CCCC3)c1 -4.99%
Cc1ccc(N2CC(C(=O)NCCS(=O)(=O)N3CCN(c4ccccc4)CC3)CC2=O)cc1 (stereo not drawn) -12.6%
Cc1ccc(-c2c(CN3CCN(c4cc(C)ccc4C)CC3)csc2C)cc1 -5.53%
Cc1c(C(=O)NC(C)c2ccccc2)sc2ncnc(N(C)C3CCCCC3)c12 (stereo not drawn) -22.4%
CCCn1cc(S(=O)(=O)c2cccc(Cl)c2)c(=O)c2cc(F)c(N3CCOCC3)cc21 -20.4%
CCN(CC)C(=O)CSc1nnc2ccc3ccccc3n12 15.9%
CCc1ccccc1NC(=O)CN1C(=O)CCn2nc(-c3cccn3C)cc21 7.83%
COc1ccc(-c2cn3c(n2)sc2cc(C(=O)Nc4ccc(C)c(Cl)c4)ccc23)cc1 20.4%
COC(=O)c1ccc(NC(=O)n2ncc3c(C)cccc32)cc1 9.48%
CCOC(=O)c1[nH]c2c(c1Cc1ccccc1C)C(=O)CC(c1ccccc1)C2 (stereo not drawn) 2.56%
Cc1c(C(=O)N2CCCCCC2)c(S(=O)(=O)Nc2cccc(C#N)c2)c(C)n1C 4.38%
CC1(C)N=C(SCc2ccc(Cl)cc2)c2ccccc2N1 3.05%
O=C(NCCc1ccccc1)C(=O)NCC(c1cccs1)S(=O)(=O)c1cccs1 (stereo not drawn) -31.9%
Cc1cc(=O)[nH]c2nnc(SCc3ccccc3F)n12 -26.9%
Cn1c(=O)cc(SCC(=O)NCc2ccc(F)cc2)c2cc(Cl)ccc21 -10.7%
Cc1ccc(S(=O)(=O)N2CCN(Cc3cc(=O)n4nc(-c5ccccc5Cl)sc4n3)CC2)cc1 -6.19%
CCOC(=O)c1c(C)[nH]c(C)c1S(=O)(=O)N1CCC(C(=O)Nc2ccccc2CC)CC1 -20.1%
Cn1c(=O)c(=O)n(C)c2cc(NS(=O)(=O)c3ccc(Br)cc3)c(Cl)cc21 -15.7%
CCc1ccc(-n2nc(CO)c(C(=O)NCc3ccccc3Cl)n2)cc1 0.139%
COc1ccc(NC(=O)N2CCCn3nc(C)cc32)cc1OC -1.33%
CCCCNC(=O)CSc1nc2cc3c(cc2c(=O)n1Cc1ccc(C(=O)NCCc2ccc(OC)c(OC)c2)cc1)OCO3 -10.8%
O=C(CCC(=O)N1Cc2ccccc2Oc2ncccc21)NCc1cccc(Cl)c1 -4.54%
COc1ccc(Cc2nc3ccccc3n2Cc2ccccc2C)cc1 -15.2%
O=C(NCc1cccc(Cl)c1)c1ccc(NC(=O)N2CCSc3ccccc32)cc1 -14%
Cc1ccc(Cc2c(C)nc3nc(SCC(=O)NCCC(C)C)nn3c2C)cc1 -6.65%
CNC(=O)Nc1ccc(-c2nc(N3CC4CCC(C3)O4)c3cnn(C4CCC5(CC4)OCCO5)c3n2)cc1 -34.4%
O=C(CN1C(=O)CCn2nc(-c3ccccc3)cc21)NCc1ccccc1 -8.36%
COc1cccc(C2C(C(=O)Nc3ccccc3OC)=C(C)Nc3nc(-c4ccco4)nn32)c1 (stereo not drawn) -18.8%
COc1ccc(-n2nc(C(=O)NCCc3ccc(OC)c(OC)c3)c3c4ccccc4n(C)c3c2=O)cc1 -7.46%
CCC(Sc1nnc2c3ccccc3n(CC)c2n1)C(=O)Nc1ccc(NC(C)=O)cc1 (stereo not drawn) -8.77%
Cc1ccccc1-c1nc(CS(=O)(=O)CC(=O)NCCCc2ccccc2)c(C)o1 -28.8%
CCCOc1cccc(C2c3c(oc4ccc(F)cc4c3=O)C(=O)N2CCc2ccc(OC)cc2)c1 (stereo not drawn) 2.83%
COc1ccc(C(=O)NCC(c2ccc(Cl)cc2)N2CCCCC2)cc1 (stereo not drawn) -14.8%
CCC(C(=O)Nc1cc(C(F)(F)F)ccc1Cl)n1nc(C)c2sc3ccccc3c2c1=O (stereo not drawn) -9.42%
COc1ccccc1CNC(=O)Cn1nc(C)n2cccc2c1=O -3.84%
COc1ccccc1CNC(=O)CCn1c(=O)c2ccccc2n(CC(=O)Nc2cc(Cl)ccc2C)c1=O -10.7%
CCc1cccc(NC(=O)CSc2ncc3c(n2)-c2cc(Cl)ccc2N(C)S3(=O)=O)c1 -14.2%
Cc1ccc(C2NC(=O)c3n[nH]c(-c4cccs4)c32)cc1 (stereo not drawn) -15.5%
Cc1ccc(Cl)cc1N1CCN(C(=O)Cn2nc(C)c3sc4ccccc4c3c2=O)CC1 -12.9%
CCC(C)NC(=O)CCSc1nc(-c2ccc3c(c2)OCO3)cc(C(F)(F)F)n1 (stereo not drawn) -34.7%
C[C@]12C=CC(=O)C=C1[C@@H](F)C[C@@H]1[C@@H]2[C@@H](O)C[C@@]2(C)[C@H]1CC[C@]2(O)C(=O)CO 3.31%
COc1ccc(C2CC(=O)c3cc(-c4nc(-c5cccc([N+](=O)[O-])c5)cs4)c(=O)n(-c4cccc(C)c4)c3C2)cc1 (stereo not drawn) -5.03%
Cc1ccc(NC(=O)CSc2nc3ccc(NC(=O)c4ccco4)cc3s2)cc1 -22.9%
Cc1ccc(NC(=O)CSc2nc(=O)n(Cc3ccccn3)c3c2CCC3)cc1F -6.19%
COC(=O)c1c(NC(=O)Cc2coc3cc(C)cc(C)c23)sc2c1CCC2 -16.9%
COCCNC(=O)c1c(NC(=O)c2cc(=O)c3cc(C)cc(C)c3o2)sc2c1CCCC2 -9.61%
COc1cccc(Cn2c(C)c(CNCc3cccc(C)c3)c(C(=O)O)c2C)c1 3.61%
O=C(CSc1nc2ccccc2nc1Cc1ccccc1)N1CCc2ccccc21 0.468%
Cc1cccc(-c2nc3c4ccccc4nc(N4CCN(c5cccc(Cl)c5)CC4)n3n2)c1 4.98%
COc1ccc(-c2c3c(nc4sc(C(=O)Nc5cccc(OC)c5)c(N)c24)CC(C)(C)CC3=O)cc1 -4.53%
CCc1ccccc1NC(=O)Cn1c(=O)n(CCc2ccccc2)c(=O)c2sc3ccccc3c21 -3.25%
NC(=O)NC(=O)Cc1ccccc1 7.33%
COc1ccc(CCNC(=O)c2ccc(Cn3c(=O)c4cccn4c4cccnc43)cc2)cc1OC -7.6%
Cc1cc(C)n2nc(CNS(=O)(=O)c3cccc(Cl)c3)nc2n1 0.652%
CCC(C)NC(=O)c1ccc(CNS(=O)(=O)c2ccc3c(c2)C(C)(C)C(=O)N3C)cc1 (stereo not drawn) 0.483%
Cc1cc(C)c2oc(-c3cccc(NC(=O)c4cccc(F)c4)c3C)nc2c1 1.37%
Cc1ccc(Cl)cc1NC(=O)CN1C=NS(=O)(=O)c2ccccc21 -10.1%
Cc1cccc(Cn2c(=O)n(-c3cc(C)cc(C)c3)c(=O)c3oc4ccccc4c32)c1 -11.3%
CCc1nn(CCCC(=O)NCc2ccccc2OC)c(=O)c2cc3occc3n12 -15.7%
Cc1cc(C)c2c(n1)nn1c(C)c(CCC(=O)Nc3cccc(C)c3C)c(C)nc21 12.9%
Cc1ccc(Cl)cc1N1CCN(C(=O)C2CCN(S(=O)(=O)c3cn(C)cn3)CC2)CC1 -19.1%
Cc1cccc(N2CCN(CCCNC(=O)Cn3ncc4c([nH]c5ccccc54)c3=O)CC2C)c1 (stereo not drawn) -0.161%
COc1ccc(N(C)C(=O)Cn2cnc3sc(C)c(S(=O)(=O)N4CCN(c5ncccn5)CC4)c3c2=O)cc1 -12.7%
Cc1ccc(-c2nc3cccc(C)n3c2Nc2ccc3c(c2)OCCO3)cc1 39%
